Out of some 46,000 compounds screened, about 60 (0.1%) were called active. Another 3% or so got no clear call; they are omitted. The call rests on the fitted dose curve; in most records, active means well fitted inhibition curve with a large enough effect; inconclusive means small, poorly fitted or top-dose-only effect; inactive means no such curve, though single readings can be large or run the other way. The list shows a part of the results.
Experiment: Primary qHTS assay for Inhibitors of ovarian cancer metastasis using an organotypic tumor microenvironment (TME) model. Further: nearly all actives have a fitted effect of over 65% in size.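 On activity change, negative = inhibition: plate controls were DMSO wells for no effect and tomatine positive control wells for full effect.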
Conditions: SKOV3ip1-GFP adhesion/invasion on 3D omental model, fluorescence; series mostly up to 45.8 µM; activity change, negative = inhibition: at the top concentration
How it was run: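 Primary human omental fibroblast/mesothelial 3D culture pre-formed 48 h. SKOV3ip1-GFP cells added with compounds (0.36-46 umol/L), incubated 2 h RT/16 h 37 C, fixed; GFP cells quantified at 488/509 nm.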

Activity change, negative = inhibition, inactive:
COc1ccc(C(=O)Nc2ccc3oc(-c4cccnc4)nc3c2)cc1 1.06%
COc1cccc(CNC(=O)c2sc3nc(C)cc(C)c3c2-n2cccc2)c1OC 5.44%
CCOC(=O)c1ccc(NC(=O)C2CCCN(c3ncnc4onc(-c5ccc(F)cc5)c34)C2)cc1 (stereo not drawn) 10.1%
Cc1c(C(=O)NCc2ccccc2)sc2nc3n(c(=O)c12)CCCCC3 4.79%
Cc1ccc(OCC(=O)Nc2cccc(-c3nc4ccccc4s3)c2)cc1 -17.9%
Cc1ccc(NC(=O)c2oc3ccc(S(=O)(=O)N4CCC5(CC4)OCCO5)cc3c2C)cc1C -1.91%
Cc1nn(S(=O)(=O)c2ccc(C(C)(C)C)cc2)c(C)c1S(=O)(=O)N1CCCCCC1 8.73%
Cc1ccc(-c2n[nH]c3c2C(c2ccc(C(C)(C)C)cc2)NC3=O)cc1 (stereo not drawn) -6.15%
COCCNC(=O)CCn1c(=O)c2cc(OC)c(OC)cc2n(CC(=O)Nc2ccc(Cl)cc2F)c1=O 11.8%
COC(=O)C(Cc1c[nH]c2ccccc12)NC(=O)COc1cccc(C)c1 (stereo not drawn) -0.239%
COC(=O)c1sccc1S(=O)(=O)N1CCN(c2cc(Cl)ccc2C)CC1 -13.5%
Cc1ccc(Cl)cc1N1CCN(C(=O)c2ccc(NC(=O)c3nsc4ccccc34)cc2)CC1 -3.46%
CCOC(=O)c1ccc(N2CCN(c3cc(C)ccc3C)CC2)c(NC(=O)Nc2ccc(CC)cc2)c1 -4.92%
CCCCC(=O)NCc1nc2cccnc2n1Cc1ccc(OC)cc1 3.51%
COc1cccc(Nc2ccc3cc(S(=O)(=O)N4CCC(C)CC4)ccc3n2)c1 -0.794%
Cc1nn2c(=O)cc(COC(=O)c3cccc(NC(=O)CCc4ccccc4)c3)nc2s1 12.9%
Cc1ccccc1-c1nc2scc(CCNS(=O)(=O)c3ccccc3)n2n1 -2.3%
COc1ccc(-c2oc3ncn4nc(-c5ccccc5O)nc4c3c2-c2ccc(OC)cc2)cc1 -4.16%
CCOc1ccc(-n2c(/C=C/c3cccc(F)c3)nc3cc(OC)c(OC)cc3c2=O)cc1 40.9%
Cc1c(C(=O)NCc2ccccc2Cl)sc2nc3n(c(=O)c12)CCCCC3 1.24%
CCOc1ccc(NC(=O)CN2C(=O)CC(C)Sc3ccccc32)cc1 (stereo not drawn) 3.64%
CC[C@H]1OC(=O)[C@H](C)C(=O)[C@H](C)[C@@H](O[C@H]2O[C@H](C)C[C@H](N(C)C)[C@@H]2O)[C@](C)(OC)C[C@@H](C)C(=O)[C@H](C)[C@H]2N(CCCCn3cnc(-c4cccnc4)c3)C(=O)O[C@]12C 4.41%
O=C(NCc1ccccc1)C1CCCN(S(=O)(=O)c2cccc3nsnc23)C1 (stereo not drawn) 8.83%
O=C1CN(C(=O)COc2ccc(Cl)cc2)C(c2ccccc2)c2cc(Br)ccc2N1 (stereo not drawn) 19.2%
Cc1cccc(C(=O)Nc2cc(-c3nc4cccnc4s3)ccc2C)c1 -3.02%
COc1ccc(C)cc1NC(=O)C1CCN(S(=O)(=O)c2ccc3[nH]c(=O)oc3c2)CC1 15.6%
COc1ccc(CCn2c3c(c(=O)[nH]c2=O)C(NC(=O)c2ccccc2F)(C(F)(F)F)C(=O)N3)cc1OC (stereo not drawn) 1.68%
COc1cc2c(=O)n(Cc3ccccc3Cl)c(=O)n(CC(=O)Nc3ccc(C)c(C)c3)c2cc1OC 19.6%
CCn1cc(CCC(=O)NCc2ccc(C)cc2)c2ccccc21 -8.87%
COc1ccc(CCNC(=O)C(CC(C)C)N2Cc3ccccc3C2=O)c(OC)c1OC (stereo not drawn) -1.73%
Cc1ccc2c(c1)C(Cc1ccccc1F)C(=O)N2 (stereo not drawn) 9.33%
Cc1ccccc1NC(=O)CCOc1ccccc1 -1.81%
CC(C(=O)NCc1cccc(Br)c1)n1ncn2cccc2c1=O (stereo not drawn) -11.2%
Cc1ccc(NC(=O)c2c(C(=O)Nc3ccccc3)sc3nc(C)cc(=O)n23)cc1 -24.6%
COc1ccc(CNC(=O)C2CCN(S(=O)(=O)c3c(C)noc3/C=C/c3cccs3)CC2)cc1 -2.24%
COc1ccc(N2CCN(C(=O)c3cn(C)c4ccc(S(=O)(=O)N(C)C5CCCCC5)cc4c3=O)CC2)cc1 -9.91%
C=CCNc1c(O)cc2c(O)c1C[C@@H](C)C[C@H](OC)[C@@H](O)[C@@H](C)C=C(C)[C@H](OC(N)=O)[C@@H](OC)C=CC=C(C)C(=O)N2 20.4%
Cc1ccc(NC(=O)c2cc(CN3CCOCC3)on2)cc1Cl 0.799%
Cn1cc(-c2cc3n(n2)CCC(=O)N3CCCC(=O)Nc2ccccc2Cl)c2ccccc21 5.59%
COc1cc(-c2nc3ccc(Cl)cn3c2Nc2ccc3c(c2)OCO3)ccc1O -11.2%
O=C(c1cccs1)c1cn(CCOc2ccc(F)cc2)c2ccccc12 -11.7%
CCc1ccccc1NC(=O)c1cc2sc(Cl)cc2n1CC -1.08%
CCOC(=O)c1c(C)[nH]c(C)c1S(=O)(=O)NCC(=O)Nc1ccc(CC)cc1 3.28%
COc1ccc2c(c1)CCc1c(C(=O)Nc3c(C)nn(Cc4c(Cl)cccc4Cl)c3C)noc1-2 -9.81%

outcome, inactive:
COc1cccc(/C=C/c2nc(C#N)c(NCCc3ccccc3)o2)c1
CCOC(=O)COc1ccc(CC)cc1C(=O)c1ccn2nc(-c3ccccc3)cc2n1
CCCOc1cccc(C(=O)Nc2cccc(-c3nc4ncccc4o3)c2C)c1
CCC1CN(C(=O)N2CCC(C(=O)NCc3ccc(N(C)C)cc3)CC2)c2ccccc2O1 (stereo not drawn)
COc1ccc(-c2cc(-c3ccc(F)cc3)nc3c2COc2ccc(F)cc2-3)cc1
CCn1cc2nc(SCC(=O)Nc3ccc(OC)c(OC)c3)n(Cc3ccc(Cl)cc3)c(=O)c2n1
Cc1cn2c(=O)cc(COC(=O)c3cccc(NC(=O)c4ccc(C(C)(C)C)cc4)c3)nc2s1
CC(=O)c1cccc(NC(=O)C2CCN(C(=O)c3cnn(-c4ccccc4)c3-n3cccc3)CC2)c1
CC(C)(C)OC(=O)N1CCC(c2c(C(=O)Nc3ccc4c(c3)OCCO4)cnn2-c2ccc(Cl)cc2)CC1
CC(C)Oc1ccccc1C1C=C(C(=O)O)Nc2ncnn21 (stereo not drawn)
COc1cc2ccccc2cc1C(=O)Nc1cccc(-c2nc3ccccc3o2)c1
CC1=C(C(=O)Nc2ccc(C)cc2Cl)C2(CCCCC2)OC1=O
Nc1nn(-c2ccccc2)nc1C(=O)OCc1ccccc1Br
Cc1ccccc1S(=O)(=O)Cc1ccc(C(=O)NCc2ccccc2Cl)o1
